Laboratory results taken from PMC6919601, “Identification of Plasmodium dipeptidyl aminopeptidase allosteric inhibitors by high throughput screening” (PLoS ONE, 2019).
The whole screen tested about 110,000 compounds, of which about 230 (0.21%) showed an effect of 50% or more. The list shows a part of the results.

target: DPAP1 (Plasmodium falciparum, UniProt Q8IIJ9); assay: primary screen, percent inhibition; read by cleavage of a fluorogenic dipeptide substrate; higher = more effect of the substance; set-up: species or system P. falciparum D10 trophozoite lysates; single well
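Note: 30 min substrate incubation versus DMSO and 10 µM JCP410 controls.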

Sequence of DPAP1 (Q8IIJ9 whole entry, looked up): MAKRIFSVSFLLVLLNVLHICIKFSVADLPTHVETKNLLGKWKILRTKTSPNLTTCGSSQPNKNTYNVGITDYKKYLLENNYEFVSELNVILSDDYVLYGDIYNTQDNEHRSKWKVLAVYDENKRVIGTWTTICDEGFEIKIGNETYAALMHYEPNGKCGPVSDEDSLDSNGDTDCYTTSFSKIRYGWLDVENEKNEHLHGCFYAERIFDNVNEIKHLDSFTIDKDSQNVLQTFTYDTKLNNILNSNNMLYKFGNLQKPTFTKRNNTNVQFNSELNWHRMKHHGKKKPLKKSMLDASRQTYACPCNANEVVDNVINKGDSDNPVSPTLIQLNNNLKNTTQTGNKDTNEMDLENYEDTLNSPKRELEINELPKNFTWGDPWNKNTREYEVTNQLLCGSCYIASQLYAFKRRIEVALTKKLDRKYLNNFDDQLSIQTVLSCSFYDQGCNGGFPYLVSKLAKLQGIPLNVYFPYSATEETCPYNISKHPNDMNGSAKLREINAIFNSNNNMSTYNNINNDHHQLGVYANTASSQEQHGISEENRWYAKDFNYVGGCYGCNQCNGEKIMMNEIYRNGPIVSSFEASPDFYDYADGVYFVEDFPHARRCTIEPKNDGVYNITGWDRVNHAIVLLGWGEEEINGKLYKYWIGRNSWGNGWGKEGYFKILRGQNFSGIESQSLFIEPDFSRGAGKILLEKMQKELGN

Compound | % Inhibition @ 10 uM [%]
COc1ccc(S(=O)(=O)N(CC(=O)Nc2ccc3c(c2)OCCO3)Cc2ccccc2)cc1 | -2.28
COc1ccc(CN2CCN(C(=O)c3cccc(F)c3)CC2)c(OC)c1OC | -4.02
Cc1cc(C(F)F)n2nc(C(=O)Nc3ccc(C(=O)N4CCOCC4)cc3)nc2n1 | -6.79
N#C/C(=C\c1ccc(O)cc1)c1nc(-c2ccc(F)cc2)cs1 | 9.96
CC(C)C[C@H](NC(=O)c1ccc(I)cc1)C(=O)NCC#N | -1.82
CCOC(=O)C1=C(CC)OC(N)=C(C#N)C1c1cccnc1 (stereo not shown) | 0.317
CC1=C(C(N)=O)C(c2ccccc2Cl)n2nc(-c3ccncc3)nc2N1 (stereo not shown) | -3.28
COc1ccccc1CNC(=O)C(C)n1nc(C)n2c(cc3sccc32)c1=O (stereo not shown) | -1.58
COc1nc(N(C)C)nc(N(C)C)n1 | 1.48
O=C1CCOc2cc(OCc3ccccc3)ccc21 | -2.09
O=S(=O)(NCc1ccc2c(c1)OCO2)c1ccc(F)c(Cl)c1 | 6.01
COc1cc(OC)cc(-c2nc3n(n2)C(c2ccncc2)C2=C(O)CC(C)(C)CC2=N3)c1 (stereo not shown) | 6.7
CC(=O)Nc1ncc2c(n1)CC(c1ccc(Cl)cc1)CC2=O (stereo not shown) | 7.98
COc1ccc(OC)c(C2CC(=O)C3=C(C2)NC(=O)CC3c2ccccc2OC)c1 (stereo not shown) | -4.16
O=C(CSc1nncn1C(=O)/C=C/c1ccccc1)c1ccccc1 | 2.7
O=C(O)CCCC(=O)Nc1ccc(N2C(=O)C3C4CCC(C4)C3C2=O)cc1 (stereo not shown) | -2.88
Cc1ccc(Cl)cc1NC(=O)C1CC=CCC1C(=O)O (stereo not shown) | -0.171
Cc1cc2ncn(C(=O)c3c(-c4ccccc4)noc3C)c2cc1C | 6.82
O=S(=O)(NCCCSC1CCCCC1)c1ccc(Br)cc1 | 2.05
CC(C)c1ccc(N(CC(=O)N2CCN(c3ccccc3F)CC2)S(C)(=O)=O)cc1 | -4.43
Cc1ccc2c(c1)cc1c(=O)n(CC(=O)NCCc3ccc(Cl)cc3)nc(C)n12 | 0.0198
Cc1c(C(=O)N2CC(C)OC(C)C2)sc2nc(-c3ccc(F)cc3)cn12 (stereo not shown) | -5.58
CC1CCN(S(=O)(=O)N2CCC(C(=O)NCc3ccc(F)cc3Cl)CC2)CC1 | -1.34
O=C(Nc1cccc2cccnc12)c1cccc([N+](=O)[O-])c1 | -2.63
COc1ccc(CCNC(=O)CCc2c(C)nc3c4c(C)cc(C)nc4nn3c2C)c(OC)c1 | 0.66

Compound | % Inhibition @ 10 uM [%]
O=C(O)c1ccn(COc2ccc(Br)cc2)n1 | 3.36
CC(CN)Nc1ccc([N+](=O)[O-])cc1 (stereo not shown) | 2.76
COc1cc(OC)cc(C(=O)Nc2nc(-c3nnn(-c4ccccc4C(F)(F)F)c3C)ns2)c1 | -4.71
COc1ccc(C(=O)N(C)Cc2ccccc2)cc1Br | -5.21
Cc1cccc(OCCc2c(C)n[nH]c2C)c1 | -4.69
Cc1cc(C)c(C#N)c(S(=O)Cc2ccc(Cl)cc2)n1 (stereo not shown) | -3.06
CC(=C1C(=O)c2ccccc2C1=O)N1CCc2ccccc2C1 | -0.169
COc1ccc(CCNC(=O)CCS(=O)(=O)Cc2ccc(Cl)cc2)cc1OC | 6.32
COc1ccccc1N1C(=O)C2C(C)NC3(C(=O)N(C/C=C\c4ccccc4)c4ccccc43)C2C1=O (stereo not shown) | -5.27
CCOC(=O)c1ccc(-n2c(CCC(=O)O)ccc2-c2cccs2)cc1O | 0.413
CSc1ccc(CN2CCN(C=O)CC2)cc1 | 1.9
COc1cc(C2N3CC4(C)CN2CC(C)(C3)C4)ccc1O (stereo not shown) | -1.82
COc1ccc(OC)c(CCNc2nc3cc(OC)c(OC)cc3c3nc(-c4ccccc4)nn23)c1 | -0.692
NC(=O)c1ccc(NC(=O)c2ccc([N+](=O)[O-])cc2)cc1 | -4.87
CCOC(=O)/C(C#N)=C/c1ccc(O)c([N+](=O)[O-])c1 | 10.7
CC(C)c1ccc(CN2CCOCC2)cc1 | 4.8
COc1cc2nc(NC3CCCCC3)n3nc(-c4ccccc4)nc3c2cc1OC | -6.07
Cc1cc(=O)oc2ccc(NC(=O)C(CCCN=C(N)N)NC(=O)C3(NC(=O)c4ccc(-c5csc(N6CCN(C)CC6)n5)cc4)CCCCC3)cc12 (stereo not shown) | 4.63
COc1ccc(/C=N\n2nnc3ccccc32)cc1 | 3.81
COc1ccc(/C=C2\C(=N)N3N=C(N4CCOCC4)SC3=NC2=O)cc1 | -7.18
CCC(=O)N(Cc1ccc2c(c1)OCO2)C1CC(=O)N(c2ccc(Br)cc2)C1=O (stereo not shown) | 0.231
O=C(COc1ccc2ccccc2c1)Nc1ccc(S(=O)(=O)N2CCCC2)cc1 | -0.366
Cc1c(Cl)cccc1NC(=O)CN(c1cccc(F)c1)S(C)(=O)=O | 1.02
CC1CC(C)CN(C(=O)CCCOc2ccc(Cl)cc2Cl)C1 (stereo not shown) | 0.215
O=C(Nc1ncc2c(n1)CC(c1ccco1)CC2=O)c1ccccc1 (stereo not shown) | -4.76

Compound | % Inhibition @ 10 uM [%]
Cc1c(C(=O)NC2CCCC2)cccc1[N+](=O)[O-] | 0.311
CCOC(=O)c1c(-c2ccc(Br)cc2)csc1NC(=O)c1sc(C)nc1C | 4
O=C(NCCc1c[nH]c2ccccc12)C1CCN(c2ccc(N3CCOCC3)nn2)CC1 | 1.91
Cc1ccc(NC(=O)/C=C/c2ccc3c(c2)OCO3)c(C)c1 | -5.32
O=C(O)c1nccnc1C(=O)Nc1ccc(Cl)cc1Cl | 1.29
CCCCNC(=O)CSc1nc(NCC2CCCO2)c2ccccc2n1 (stereo not shown) | -0.801
CCOc1ccc(C2C(C(=O)c3ccc(F)cc3)=C(O)C(=O)N2CC2CCCO2)cc1OC (stereo not shown) | -13.5
COc1ccc(C)cc1NC(=O)c1ccc(Br)cc1 | 1.39
O=C1/C(=C/c2ccc(O)c(O)c2)Sc2ccccc21 | 22
CCN1CCCC1CNC(=O)CN1C(=O)CSc2nc(C)cc(C)c21 (stereo not shown) | -6.01
COc1ccc(-c2cc(CCCC(=O)NCc3ccco3)no2)cc1 | 2.12
COC(=O)c1[nH]cnc1C(=O)NC1CC(C)(C)NC(C)(C)C1 | -3.75
CC1=C(c2ccc(C)cc2)S(=O)(=O)N=C1NCCCN(Cc1ccccc1)C(C)C | -4.68
CC(CNC(=O)c1nnc(Cc2ccc(Cl)cc2)o1)c1ccccc1 (stereo not shown) | -2.19
CCOc1ccccc1NC(=O)Nc1ccc(Cl)cc1 | -1.36
CCC(C)NC(=O)C1CCN(S(=O)(=O)c2c(C)noc2/C=C\c2ccc(OC)cc2)CC1 (stereo not shown) | -1.28
CCc1ccc(C2C3=C(O)CCCC3=NC(C)=C2C(=O)OC)s1 (stereo not shown) | 4.52
COC(=O)C1=C(O)/C(=C\c2cc3c(cc2Br)OCO3)N=C1C | -5.26
Cc1cccc2c1-c1sc(C(=O)Nc3cccnc3)cc1CO2 | -4.85
Cc1cc(-c2ccc(S(=O)(=O)NCc3ccccn3)s2)on1 | 3.9
COc1ccc(Nc2oc(COc3ccc(OC)cc3)nc2C#N)cc1 | 0.446
Cc1c(C(=O)NC2CCCCC2)c(C)n2cnn(CC(=O)NCCCN3CC(C)CC(C)C3)c(=O)c12 (stereo not shown) | 1.72
COc1c(O)cnn(Cc2ccccc2)c1=O | -6.12
Cc1cccc(OCC(=O)NC2CCCCCC2)c1C | 0.83
O=[N+]([O-])c1ccc(CN2CCC(Cc3ccccc3)CC2)cc1 | -0.34

Compound | % Inhibition @ 10 uM [%]
CCOc1ccc(CCNC(=O)c2oc3c(c2C)-c2n[nH]cc2CC3)cc1OCC | -4.68
CCOc1c(/C=C(\C#N)C(N)=O)c2ccccc2n1-c1c(Cl)cccc1Cl | 1.9
O=C(CSc1ncnc2sc3c(c12)CCCC3)Nc1ccc2c(c1)OCCO2 | 0.528
Cc1nc2scc(C)n2c(=O)c1S(=O)(=O)N1CCC(Cc2ccccc2)CC1 | -5.67
O=C(NCCC12CC3CC(CC(C3)C1)C2)c1csc2ccccc12 | -5.27
Oc1ccc2ccccc2c1CN1CC=C(c2ccc(F)cc2)CC1 | -7.18
c1cc(CN2CCSCC2)ccn1 | -7.34
CC12CN3CN(C1)CC(C)(C3)C2NC(=S)Nc1ccccc1 (stereo not shown) | 1.4
CCOc1ccc(-c2nc(SCC(=O)NCCCOC)c(-c3ccc(F)cc3)[nH]2)cc1 | -1.58
O=C(NCC1CCCO1)c1cc2n(n1)C(C(F)(F)F)CC(c1ccc(F)cc1)N2 (stereo not shown) | 2.38
N#C/C(C(N)=O)=C1/CCCN1Cc1ccccc1 | 1.9
CCOc1ccccc1NC(=O)COc1ccc(C)c(C)c1 | -6.64
O=C(c1ccc(CSc2nc3ccncc3n2Cc2ccc(F)cc2)cc1)N1CCOCC1 | -2.37
Cc1cc(=O)n2nc(N(C)CC(=O)NCCCc3ccccc3)sc2n1 | -2
COc1ccc(OC)c(CCNC(=O)CCCn2nc(C)c3sc4ccccc4c3c2=O)c1 | -6.64
Cc1ccccc1C(=O)Nc1c2c(nc3ccccc13)CCCC2 | -1.43
NC(=O)CSc1nc2ccccc2n1C1CCCCC1 | 1.16
Cc1ccc(N2C(=O)CSC2c2ccc(Cl)cc2)cc1 (stereo not shown) | 1.43
Cc1ccc2nc3c(cc(C#N)c(=N)n3CCN3CCOCC3)c(=O)n2c1 | 1.76
Cc1c(OCC(=O)O)ccc2c(-c3ccccc3)cc(=O)oc12 | 9.21
CC(CN1CCCCC1)C(=O)c1ccccc1 (stereo not shown) | -8.61
CCC(C(=O)O)n1sc2ccccc2c1=O (stereo not shown) | -1.75
O=C(Nc1ccc(-c2cc3ccccc3oc2=O)cc1)c1ccccc1F | 2.94
COc1ccc(NC(=O)CN2CCN(CC#N)CC2)cc1 | 0.231
Cc1cccc(NC(=O)c2cnoc2C)c1C | -1.61
